{"source": "paper PMC4336329", "about": "(PLoS ONE, 2015)", "note": "The whole screen tested about 310,000 compounds, of which about 2,200 (0.71%) showed an effect of 50% or more. The effect is printed as a negative number. Some of the results follow."}
{"biological_target": "human ether-à-go-go-related gene (hERG) potassium channel (human, UniProt Q12809)", "sequence (Q12809 whole entry, looked up)": "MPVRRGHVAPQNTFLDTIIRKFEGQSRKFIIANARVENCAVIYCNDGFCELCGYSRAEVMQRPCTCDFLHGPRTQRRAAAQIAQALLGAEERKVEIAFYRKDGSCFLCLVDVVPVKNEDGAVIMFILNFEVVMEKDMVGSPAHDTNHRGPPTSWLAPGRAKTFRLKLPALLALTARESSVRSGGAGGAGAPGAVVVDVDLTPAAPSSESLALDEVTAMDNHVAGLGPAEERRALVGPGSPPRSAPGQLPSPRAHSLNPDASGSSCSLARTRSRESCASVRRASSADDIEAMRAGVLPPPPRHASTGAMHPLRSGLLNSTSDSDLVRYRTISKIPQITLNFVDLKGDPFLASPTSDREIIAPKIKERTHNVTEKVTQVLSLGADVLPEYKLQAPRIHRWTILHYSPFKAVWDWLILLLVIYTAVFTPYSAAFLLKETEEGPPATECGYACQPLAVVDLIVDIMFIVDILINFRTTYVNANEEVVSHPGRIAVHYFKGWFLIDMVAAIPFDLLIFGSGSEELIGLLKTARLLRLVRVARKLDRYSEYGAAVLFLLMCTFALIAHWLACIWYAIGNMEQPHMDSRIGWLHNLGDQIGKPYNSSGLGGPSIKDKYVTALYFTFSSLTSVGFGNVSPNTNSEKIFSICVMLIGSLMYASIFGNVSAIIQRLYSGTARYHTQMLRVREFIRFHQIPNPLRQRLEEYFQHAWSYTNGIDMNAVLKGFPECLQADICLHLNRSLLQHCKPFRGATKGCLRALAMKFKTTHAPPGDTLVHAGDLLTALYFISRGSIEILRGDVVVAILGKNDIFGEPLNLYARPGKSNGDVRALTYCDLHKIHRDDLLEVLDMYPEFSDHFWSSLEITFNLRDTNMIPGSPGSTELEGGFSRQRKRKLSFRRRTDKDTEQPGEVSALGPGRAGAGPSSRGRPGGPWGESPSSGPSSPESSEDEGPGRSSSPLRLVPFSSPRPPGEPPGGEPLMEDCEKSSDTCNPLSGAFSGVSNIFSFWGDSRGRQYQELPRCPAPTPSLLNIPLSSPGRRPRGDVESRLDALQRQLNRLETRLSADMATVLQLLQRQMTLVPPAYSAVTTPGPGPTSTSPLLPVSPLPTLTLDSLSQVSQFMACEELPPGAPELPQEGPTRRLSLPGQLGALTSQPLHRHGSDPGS", "experiment": "primary screen, population patch clamp on CHO cells stably expressing hERG", "units": {"hERG current change (%, negative = inhibition) at 1uM": "%"}}
{"smiles": "CCOC(=O)c1ccc(N2C(=O)C3ON(c4ccccc4)C(c4ccco4)C3C2=O)cc1", "note": "(centres unmarked)", "hERG current change (%, negative = inhibition) at 1uM": 16.4}
{"smiles": "CC(=O)NCCC(=O)Nc1nc(C)c(Cc2ccc3c(c2)OCO3)s1", "hERG current change (%, negative = inhibition) at 1uM": 1.67}
{"smiles": "COc1ccc(N(C(=O)c2cccnc2)S(=O)(=O)c2ccc3c(c2)n(C)c(=O)n3C)cc1", "hERG current change (%, negative = inhibition) at 1uM": 2.78}
{"smiles": "CC1(C)CC(=O)CC(=Nc2ccc(C(=O)O)cc2)C1", "hERG current change (%, negative = inhibition) at 1uM": 12.1}
{"smiles": "COc1ccccc1CNC(=O)CCNC(=O)C1CCN(S(=O)(=O)c2ccccc2)CC1", "hERG current change (%, negative = inhibition) at 1uM": 2.41}
{"smiles": "COc1ccc(Cl)cc1NC(=O)c1ocnc1C", "hERG current change (%, negative = inhibition) at 1uM": 0.857}
{"smiles": "O=C(NCC(=O)N(c1cccc(F)c1)C(C(=O)NC1CCCC1)c1ccncc1)c1cccs1", "note": "(centres unmarked)", "hERG current change (%, negative = inhibition) at 1uM": 13.4}
{"smiles": "COc1ccc(-c2nn(CCC#N)cc2C(=O)Nc2ccc(C(C)=O)cc2)cc1[N+](=O)[O-]", "hERG current change (%, negative = inhibition) at 1uM": 11.9}
{"smiles": "O=Cc1ccccc1Oc1nc(N2CCOCC2)nc(N2CCOCC2)n1", "hERG current change (%, negative = inhibition) at 1uM": 9.76}
{"smiles": "CN=C(Nc1ccc(C)c(C)c1)SC1CC(=O)N(c2ccc(OC)cc2)C1=O", "note": "(centres unmarked)", "hERG current change (%, negative = inhibition) at 1uM": 11.2}
{"smiles": "COc1ccc(Cl)cc1NC(=O)C(C)NC(c1ccccc1)c1ccccc1", "note": "(centres unmarked)", "hERG current change (%, negative = inhibition) at 1uM": 2.3}
{"smiles": "N#Cc1ncc(C(F)(F)F)cc1Sc1ccccc1N", "hERG current change (%, negative = inhibition) at 1uM": 11.7}
{"smiles": "Cc1ccc(C)c(NC(=O)CCc2ccc(S(=O)(=O)NC3CCCCC3)cc2)c1", "hERG current change (%, negative = inhibition) at 1uM": 8.33}
{"smiles": "CC(C)(C)c1ccc(/C=C/C(=O)Nc2cccnc2)cc1", "hERG current change (%, negative = inhibition) at 1uM": 8.63}
{"smiles": "Cc1oc2ccc(O)cc2c1C(=O)c1ccccc1", "hERG current change (%, negative = inhibition) at 1uM": 9.82}
{"smiles": "COc1ccc(C2=NOC(C(=O)NCc3ccc(F)cc3)C2)cc1OC", "note": "(centres unmarked)", "hERG current change (%, negative = inhibition) at 1uM": 3.29}
{"smiles": "Cc1ccn2cc(-c3cccc(NC(=O)C(C)C)c3)nc2c1", "hERG current change (%, negative = inhibition) at 1uM": -1.33}
{"smiles": "Cc1ccccc1NC(=O)NCCCN1CCCC1", "hERG current change (%, negative = inhibition) at 1uM": 20}
{"smiles": "O=C(N/N=C/c1cc2c(cc1Cl)OCO2)c1ccc2c(c1)OCCO2", "hERG current change (%, negative = inhibition) at 1uM": 12.6}
{"smiles": "Cc1ccc(N2CC(C(=O)OCc3nc(N)nc(Nc4ccccc4C)n3)CC2=O)cc1", "note": "(centres unmarked)", "hERG current change (%, negative = inhibition) at 1uM": 8.04}
{"smiles": "Oc1cc2c(cc1CN1CCN(c3ccc(F)cc3)CC1)OCO2", "hERG current change (%, negative = inhibition) at 1uM": 5.92}
{"smiles": "O=C(NCc1ccccn1)c1cccc(S(=O)(=O)Nc2ccccc2Cl)c1", "hERG current change (%, negative = inhibition) at 1uM": 17}
{"smiles": "Cc1c(C(=O)N/N=C/c2cccnc2)nnn1-c1nonc1N", "hERG current change (%, negative = inhibition) at 1uM": 9.92}
{"smiles": "Cc1nc(N)nc(N/N=C/c2ccccc2)n1", "hERG current change (%, negative = inhibition) at 1uM": 11.9}
{"smiles": "O=C(O)c1cc(C(=O)O)c(-c2ccccc2)c(C(=O)O)c1", "hERG current change (%, negative = inhibition) at 1uM": -2.98}
{"smiles": "NNC(=O)c1ccc(Cn2cc(Br)c(N)n2)cc1", "hERG current change (%, negative = inhibition) at 1uM": 18}
{"smiles": "Cc1onc(-c2ccc(Cl)cc2Cl)c1-c1csc(N/N=C/c2ccccc2Cl)n1", "hERG current change (%, negative = inhibition) at 1uM": 8.92}
{"smiles": "CC1=NN(c2ccc(C(=O)O)c(N)c2)C(=O)C1", "hERG current change (%, negative = inhibition) at 1uM": 10.8}
{"smiles": "CC(C)Nc1nc(NC(C)C)nc(N(C)n2cnnc2)n1", "hERG current change (%, negative = inhibition) at 1uM": 12.3}
{"smiles": "CCOCCCNC(=S)N(CCN(C)C)Cc1cc2cc3c(cc2[nH]c1=O)OCCO3", "hERG current change (%, negative = inhibition) at 1uM": 17.8}
{"smiles": "CCOC(=O)c1sc(NC(=O)CNCc2cccnc2)c(C(=O)OCC)c1C", "hERG current change (%, negative = inhibition) at 1uM": -3.36}
{"smiles": "Cc1cc(NC(=O)CSc2nc(-c3ccccc3)c(C#N)c(=O)[nH]2)no1", "hERG current change (%, negative = inhibition) at 1uM": -7.8}
{"smiles": "COc1ccc(-c2nn(-c3ccccc3)cc2C(=O)NC2CC2)cc1", "hERG current change (%, negative = inhibition) at 1uM": 1.61}
{"smiles": "O=C(COc1ccc(F)cc1)Nc1nnc(S(=O)(=O)N2CCCC2)s1", "hERG current change (%, negative = inhibition) at 1uM": 9.65}
{"smiles": "O=C(CCc1ccc(S(=O)(=O)N2CCOCC2)cc1)N/N=C/c1ccc(O)c(O)c1O", "hERG current change (%, negative = inhibition) at 1uM": 14.9}
{"smiles": "O=C(Cn1cnc2ccccc2c1=O)Nc1ccc2c(c1)CCC2", "hERG current change (%, negative = inhibition) at 1uM": -1.15}
{"smiles": "N=c1oc2ccc(Br)cc2cc1C(=O)NCc1ccc(F)cc1", "hERG current change (%, negative = inhibition) at 1uM": 8.7}
{"smiles": "COc1cccc(N2CCN(C(=O)Nc3ccccc3Cl)CC2)c1", "hERG current change (%, negative = inhibition) at 1uM": 4.75}
{"smiles": "Cc1ccc(Cn2c(C3CCCN3c3nc(-c4ccc(F)cc4)cs3)nc3cc(C(F)(F)F)ccc32)cc1", "note": "(centres unmarked)", "hERG current change (%, negative = inhibition) at 1uM": 11.3}
{"smiles": "O=C(CSc1nnc(NC(=O)c2ccco2)s1)NC1CCCCC1", "hERG current change (%, negative = inhibition) at 1uM": 6.89}
{"smiles": "COc1ccccc1CCC(=O)Nc1ccc2c(c1)CN(Cc1ccc(C)o1)CC2", "hERG current change (%, negative = inhibition) at 1uM": 11.7}
{"smiles": "CCCCC(CC)CNC(=O)C(=O)C1C(=O)Nc2ccccc21", "note": "(centres unmarked)", "hERG current change (%, negative = inhibition) at 1uM": 7.79}
{"smiles": "O=C(O)C1C2C=CC(C2)C1C(=O)N1CCN(C/C=C/c2ccccc2)CC1", "note": "(centres unmarked)", "hERG current change (%, negative = inhibition) at 1uM": 14.1}
{"smiles": "Cc1ccc(S(=O)(=O)N2CCN(CC(O)CN3CCOCC3)CC2)cc1", "note": "(centres unmarked)", "hERG current change (%, negative = inhibition) at 1uM": 8.25}
